# Measured values as given in the supplement of paper PMC8728848.
# The other results are listed elsewhere or left out.
# Experiments:
# Test in all cases: glycan array binding signal (z-score within array); higher = stronger binding
# Details in all cases: glycan notation: IUPAC condensed, linker removed
# [1] = target: Neu5Ac(a2-3)Gal(b1-4)[Fuc(a1-3)]GlcNAc(b1-3)Gal
# Outline: (§1)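 The binding signal is a Z-score computed within each array. Data were drawn from 3228 arrays in the Consortium for Functional Glycomics database, restricted to those with a known protein sequence. Scores were averaged over arrays of the same protein sequence at different concentrations or buffers, and over linkers, and negative values can be taken as non-binding.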
# [2] = target: Neu5Ac(a2-3)Gal(b1-4)[Fuc(a1-3)]GlcNAc(b1-3)Gal(b1-4)GlcNAc
# Outline: as §1
# [3] = target: Neu5Ac(a2-3)Gal(b1-4)[Fuc(a1-3)]GlcNAc(b1-3)Gal(b1-4)[Fuc(a1-3)]GlcNAc(b1-3)Gal(b1-4)[Fuc(a1-3)]GlcNAc
# Outline: as §1
# [4] = target: Neu5Ac(a2-3)Gal(b1-4)[Fuc(a1-3)]GlcNAc(b1-3)GalNAc
# Outline: as §1
# [5] = target: Neu5Ac(a2-3)Gal(b1-4)[Fuc(a1-3)]GlcNAc(b1-6)[Gal(b1-3)]GalNAc
# Outline: as §1
# [6] = target: Neu5Ac(a2-3)Gal(b1-4)[Fuc(a1-3)]GlcNAc(b1-6)[Neu5Ac(a2-3)Gal(b1-3)]GalNAc
# Outline: as §1
# [7] = target: Neu5Ac(a2-3)Gal(b1-4)[Fuc(a1-3)]GlcNAc6S
# Outline: as §1
# [8] = target: Neu5Ac(a2-3)Gal6S(b1-4)GlcNAc
# Outline: as §1
# [9] = target: Neu5Ac(a2-3)Gal6S(b1-4)[Fuc(a1-3)]GlcNAc
# Outline: as §1
# Neu5Ac(a2-3)GalNAc = target: Neu5Ac(a2-3)GalNAc
# Outline: as §1
# [10] = target: Neu5Ac(a2-3)GalNAc(b1-4)GlcNAc
# Outline: as §1
# [11] = target: Neu5Ac(a2-3)[GalNAc(b1-4)]Gal(b1-4)Glc
# Outline: as §1
# [12] = target: Neu5Ac(a2-3)[GalNAc(b1-4)]Gal(b1-4)GlcNAc
# Outline: as §1
# [13] = target: Neu5Ac(a2-3)[GalNAc(b1-4)]Gal(b1-4)GlcNAc(b1-3)GalNAc
# Outline: as §1
# [14] = target: Neu5Ac(a2-3)[Neu5Ac(a2-6)]GalNAc
# Outline: as §1
# Neu5Ac(a2-6)Gal = target: Neu5Ac(a2-6)Gal
# Outline: as §1
# Neu5Ac(a2-6)Gal(b1-4)Glc = target: Neu5Ac(a2-6)Gal(b1-4)Glc
# Outline: as §1
# [15] = target: Neu5Ac(a2-6)Gal(b1-4)GlcNAc
# Outline: as §1
# [16] = target: Neu5Ac(a2-6)Gal(b1-4)GlcNAc(b1-2)Man(a1-3)Man(b1-4)GlcNAc(b1-4)GlcNAc
# Outline: as §1
# [17] = target: Neu5Ac(a2-6)Gal(b1-4)GlcNAc(b1-2)Man(a1-3)[Gal(b1-4)GlcNAc(b1-2)Man(a1-6)]Man(b1-4)GlcNAc(b1-4)GlcNAc
# Outline: as §1
# [18] = target: Neu5Ac(a2-6)Gal(b1-4)GlcNAc(b1-2)Man(a1-3)[GlcNAc(b1-2)Man(a1-6)]Man(b1-4)GlcNAc(b1-4)GlcNAc
# Outline: as §1
# [19] = target: Neu5Ac(a2-6)Gal(b1-4)GlcNAc(b1-2)Man(a1-3)[GlcNAc(b1-2)Man(b1-4)GlcNAc(b1-2)Man(a1-6)]Man(b1-4)GlcNAc(b1-4)GlcNAc
# Outline: as §1
# [20] = target: Neu5Ac(a2-6)Gal(b1-4)GlcNAc(b1-2)Man(a1-3)[Man(a1-6)]Man(b1-4)GlcNAc(b1-4)GlcNAc
# Outline: as §1
# [21] = target: Neu5Ac(a2-6)Gal(b1-4)GlcNAc(b1-2)Man(a1-3)[Neu5Ac(a2-6)Gal(b1-4)GlcNAc(b1-2)Man(a1-6)]Man(b1-4)GlcNAc(b1-4)GlcNAc
# Outline: as §1
# [22] = target: Neu5Ac(a2-6)Gal(b1-4)GlcNAc(b1-2)Man(a1-6)Man(b1-4)GlcNAc(b1-4)GlcNAc
# Outline: as §1
# [23] = target: Neu5Ac(a2-6)Gal(b1-4)GlcNAc(b1-2)Man(a1-6)[Gal(b1-4)GlcNAc(b1-2)Man(a1-3)]Man(b1-4)GlcNAc(b1-4)GlcNAc
# Outline: as §1
# [24] = target: Neu5Ac(a2-6)Gal(b1-4)GlcNAc(b1-2)Man(a1-6)[GlcNAc(b1-2)Man(a1-3)]Man(b1-4)GlcNAc(b1-4)GlcNAc
# Outline: as §1
# [25] = target: Neu5Ac(a2-6)Gal(b1-4)GlcNAc(b1-2)Man(a1-6)[Man(a1-3)]Man(b1-4)GlcNAc(b1-4)GlcNAc
# Outline: as §1
# [26] = target: Neu5Ac(a2-6)Gal(b1-4)GlcNAc(b1-3)Gal(b1-3)GlcNAc
# Outline: as §1
# [27] = target: Neu5Ac(a2-6)Gal(b1-4)GlcNAc(b1-3)Gal(b1-4)GlcNAc
# Outline: as §1
# [28] = target: Neu5Ac(a2-6)Gal(b1-4)GlcNAc(b1-3)Gal(b1-4)GlcNAc(b1-3)Gal(b1-4)GlcNAc
# Outline: as §1
# [29] = target: Neu5Ac(a2-6)Gal(b1-4)GlcNAc(b1-3)Gal(b1-4)[Fuc(a1-3)]GlcNAc(b1-3)Gal(b1-4)[Fuc(a1-3)]GlcNAc
# Outline: as §1
# [30] = target: Neu5Ac(a2-6)Gal(b1-4)GlcNAc(b1-3)GalNAc
# Outline: as §1
# [31] = target: Neu5Ac(a2-6)Gal(b1-4)GlcNAc6S
# Outline: as §1
# Neu5Ac(a2-6)GalNAc = target: Neu5Ac(a2-6)GalNAc
# Outline: as §1
# [32] = target: Neu5Ac(a2-6)GalNAc(b1-4)GlcNAc
# Outline: as §1
# [33] = target: Neu5Ac(a2-6)GlcNAc(b1-4)GlcNAc
# Outline: as §1
# [34] = target: Neu5Ac(a2-6)GlcNAc(b1-4)GlcNAc(b1-4)GlcNAc
# Outline: as §1
binder,measurement,setting,value
"exo-alpha-sialidase (Propionibacterium acnes), Q6A7G1 (protein) GSHMSGRAPAPVAATTQPKLVTGDITSTDQSGTNLFFGKKIVRNARGAIMKVDRTWPAAVPAPLPDVRADSSTRMLLGPVVDLAVNEHPEGVFYRIPALATASNGDLLASYDLRPGSAGDAPNPNSIVQRRSRDNGRTWGPQTVIHAGTPGRRKVGYSDPSYLVDPATGRILNFHVKSYDRGFATSEVGTDPDDRHVLHAEVSTSTDNGHTWTHRDITREITSDPTTRTRFVASGQGIALLHGPHAGRLIAQMTVRNSVGQQAQSIYSDDHGITWHAGNPVGRMMDENKVVELSDGTLMLNSRDAARSGRRKVAYSQDGGLTWGPVKLVDDLIDPTNNAQIIRAYPNARAGSAKARILLFTNARNATERVNGTLSVSCDDGRTWVSHQTYMPGEVGYTTAAVQSDGALGVLWERDGIRYSTIPMGWLNSVCPLAPSGRPTSGKPTSGTSLPPTAT",glycan array binding signal (z-score),[1],-0.222
same,glycan array binding signal (z-score),[2],-0.131
same,glycan array binding signal (z-score),[3],-0.26
same,glycan array binding signal (z-score),[4],0.236
same,glycan array binding signal (z-score),[5],0.107
same,glycan array binding signal (z-score),[6],1.81
same,glycan array binding signal (z-score),[7],-0.305
same,glycan array binding signal (z-score),[8],-0.069
same,glycan array binding signal (z-score),[9],0.257
same,glycan array binding signal (z-score),Neu5Ac(a2-3)GalNAc,0.845
same,glycan array binding signal (z-score),[10],0.672
same,glycan array binding signal (z-score),[11],-0.307
same,glycan array binding signal (z-score),[12],-0.316
same,glycan array binding signal (z-score),[13],-0.347
same,glycan array binding signal (z-score),[14],4.53
same,glycan array binding signal (z-score),Neu5Ac(a2-6)Gal,0.711
same,glycan array binding signal (z-score),Neu5Ac(a2-6)Gal(b1-4)Glc,0.665
same,glycan array binding signal (z-score),[15],0.458
same,glycan array binding signal (z-score),[16],-0.02
same,glycan array binding signal (z-score),[17],0.072
same,glycan array binding signal (z-score),[18],-0.014
same,glycan array binding signal (z-score),[19],0.422
same,glycan array binding signal (z-score),[20],-0.118
same,glycan array binding signal (z-score),[21],1.24
same,glycan array binding signal (z-score),[22],0.064
same,glycan array binding signal (z-score),[23],-0.184
same,glycan array binding signal (z-score),[24],-0.006
same,glycan array binding signal (z-score),[25],-0.137
same,glycan array binding signal (z-score),[26],0.035
same,glycan array binding signal (z-score),[27],0.359
same,glycan array binding signal (z-score),[28],0.285
same,glycan array binding signal (z-score),[29],-0.203
same,glycan array binding signal (z-score),[30],0.27
same,glycan array binding signal (z-score),[31],0.62
same,glycan array binding signal (z-score),Neu5Ac(a2-6)GalNAc,-0.072
same,glycan array binding signal (z-score),[32],-0.149
same,glycan array binding signal (z-score),[33],3.52
same,glycan array binding signal (z-score),[34],1.31
